In PubChem BioAssay AID540317 (National Center for Advancing Translational Sciences (NCATS), 2011):
In all, about 390,000 compounds went through this assay and about 2,200 (0.56%) were called active. This list was built around the results that the source calls inconclusive (neither active nor inactive); the mix of calls is not that of the screen. The call rests on the fitted dose curve; in most records, active means well fitted inhibition curve with a large enough effect; inconclusive means small, poorly fitted or top-dose-only effect; inactive means no such curve, though single readings can be large or run the other way. A potency beside an inconclusive call is a rough fit, not a confirmed value.

What follows are compounds tested against Chromobox protein homolog 1 (Homo sapiens) (UniProt P83916) (assay: HTS for Inhibitors of HP1-beta Chromodomain Interactions with Methylated Histone Tails). Conditions: AlphaScreen HP1-beta / biotin-H3K9me3 peptide binding; series mostly up to 114 µM.
UniProt P83916, sequence (P83916 whole entry, looked up): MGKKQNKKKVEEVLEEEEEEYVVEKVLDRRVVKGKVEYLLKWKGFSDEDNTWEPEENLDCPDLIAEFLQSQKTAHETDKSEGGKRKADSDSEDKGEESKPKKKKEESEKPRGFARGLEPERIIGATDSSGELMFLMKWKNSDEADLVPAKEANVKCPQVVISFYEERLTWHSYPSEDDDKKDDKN
Outline: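 HP1-beta protein (50 nM final) preincubated 30 min at room temperature with biotinylated H3(1-18)K9me3 peptide (50 nM) in PBS pH 7.4, 0.01% Tween-20, then compound added for 30 min. AlphaScreen streptavidin donor/nickel chelate acceptor beads (10 ug/mL final), 30 min dark, luminescence read.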
Further: nearly all actives have a fitted effect of over 70% in size.
Potency means the concentration at half of the fitted maximal effect; tags describe the fitted curve by direction and shape.

Row | Structure (SMILES) | Potency
1 | CCC(C)NCCOCCOc1ccccc1-c1ccccc1 (configuration not stated) | inconclusive: 50.1 µM [inhibitor, single point]
2 | CCCCCn1c(N)c(-c2nc3ccccc3o2)c2c([N+](=O)[O-])nn(CC)c(=O)c21 | inconclusive: 28.2 µM [inhibitor, single point]
3 | C=CCc1cc(Cl)ccc1OCCNCCOC | inconclusive: 35.5 µM [inhibitor, partial curve]
4 | Oc1ccc(N2CCN(C(=S)NCCc3ccccc3)CC2)cc1 | inconclusive: 31.6 µM [inhibitor, partial curve]
5 | Cc1ccn2cc(-c3cnoc3C)nc2c1 | inactive
6 | COc1cc(/C=N/N2C(=O)c3ccccc3NC2(C)c2cccc([N+](=O)[O-])c2)cc(Br)c1O (configuration not stated) | inconclusive: 14.1 µM [inhibitor, full curve, poor fit]
7 | CCn1c(=O)c(C(=O)CN2c3ccccc3CC2C)c(N)n(Cc2ccccc2)c1=O (configuration not stated) | inconclusive: 39.8 µM [inhibitor, partial curve, poor fit]
8 | CC1(C)C2CCC(C2)C1(C)NC(=O)CN1CCN(Cc2ccccc2)CC1 (configuration not stated) | active: 15.8 µM
9 | N#C/C(=C\c1ccc(O)cc1)C(=O)NCC1CCCO1 (configuration not stated) | inactive
10 | COc1ccc(C(=O)Nc2ccc(O)c3ccccc23)cc1OC | inconclusive: 79.4 µM [inhibitor, partial curve]
11 | S=C(NCCN1CCOCC1)Nc1ccc(Nc2ccccc2)cc1 | inconclusive: 35.5 µM [inhibitor, partial curve, poor fit]
12 | Cc1cc(C)cc(OCC(=O)O/N=C(\N)c2ccccc2Cl)c1 | inactive
13 | COc1cc(CNc2ccc(O)cc2)cc(Br)c1OCc1ccccc1 | inconclusive: 28.2 µM [inhibitor, partial curve]
14 | c1ccc(CC2CCN(C3=Nc4cccc5cccc3c45)CC2)cc1 | inconclusive: 15.8 µM [inhibitor, full curve]
15 | CCOC(=O)c1c(Nc2ccc(C)c(C)c2)nnc(-c2ccccc2)c1-c1ccccc1 | inconclusive: 14.1 µM [inhibitor, partial curve, poor fit]
16 | O=C(NCc1ccco1)C1CCN(c2nc3ccccc3n2Cc2ccc(F)cc2)CC1 | inactive
17 | CN(c1ccc(C(=O)N2CCN(Cc3ccccc3)CC2)cc1)S(=O)(=O)c1ccc(Cl)cc1 | inactive
18 | O=C1CCC2(CC1)NC(=O)N(c1ccccc1)N2 | inactive
19 | CC1CCCC(C)N1C(=O)CSc1nc(N)cc(N)n1 (configuration not stated) | inconclusive: 89.1 µM [inhibitor, single point]
20 | COc1cc(OC)c2c(C)cc(=O)oc2c1C(CCN1CCOCC1)c1ccc(N(C)C)cc1 (configuration not stated) | inconclusive: 28.2 µM [inhibitor, partial curve]
21 | CCCCc1nc2ccccc2c(NC(=O)CN2CCCC2)c1CCC | inconclusive: 10 µM [inhibitor, full curve]
22 | Clc1ccc(SCCOCCN2CCOCC2)cc1 | inconclusive: 14.1 µM [inhibitor, partial curve, poor fit]
23 | Cc1ccc(NC(=O)c2c(NC(=O)CCC(=O)O)sc3c2CCCCC3)cc1 | inconclusive: 17.8 µM [inhibitor, partial curve, poor fit]
24 | COc1cc(NC(=O)Cn2nc(-c3ccc(F)cc3)ccc2=O)ccc1-n1cnnn1 | inactive

Row | Structure (SMILES) | Potency
25 | COc1ccc(-n2c(COc3cccc4ccccc34)nnc2SCC(=O)NCc2ccco2)cc1 | inconclusive: 20 µM [inhibitor, partial curve, poor fit]
26 | O=C(CCl)Nc1ccc(N2CCCCCC2)cc1 | inconclusive: 50.1 µM [inhibitor, partial curve]
27 | COc1ccc(NC(=O)C(Cc2ccccc2)n2cccc2)cc1OC (configuration not stated) | inconclusive: 44.7 µM [inhibitor, partial curve]
28 | O=[N+]([O-])c1cc(C(F)(F)F)cc([N+](=O)[O-])c1NCCCNc1ccc([N+](=O)[O-])c2cccnc12 | inactive
29 | CN1C(=O)/C(=C\C(=O)c2cccs2)c2ccccc21 | active: 44.7 µM
30 | O=C(NC1CCCc2ccccc21)c1ccccc1 (configuration not stated) | inactive
31 | CN(C)c1cc[n+](/C(C(=S)Nc2ccc(SC(F)F)cc2)=C(/[O-])c2ccccc2)cc1 | inactive
32 | CCC(=O)Nc1ccc(CC)cc1-c1nc2ccccc2n(Cc2ccccc2)c1=O | inactive
33 | Cc1cccc(N2CCN(C(=S)c3ccc4c(c3)OCO4)CC2)c1 | inconclusive: 11.2 µM [inhibitor, partial curve]
34 | COc1cccc(-n2c(SC)nnc2-c2c[nH]c3ccccc23)c1 | inactive
35 | CC(C)N(Cc1ccccc1)C(=O)Cn1ncc2c([nH]c3ccccc32)c1=O | inactive
36 | O=c1cc(CO)oc(C(Nc2ccccn2)c2ccc(F)cc2)c1O (configuration not stated) | inconclusive: 15.8 µM [inhibitor, full curve, poor fit]
37 | CN(Cc1ccccc1)Cc1ccccc1F | inconclusive: 44.7 µM [inhibitor, partial curve]
38 | CN(N=C(c1ccccc1)c1ccccc1)c1ccccc1 | inconclusive: 39.8 µM [inhibitor, partial curve]
39 | Cc1ccn2c(-c3n[nH]c(=S)n3C)c(C)nc2c1 | inconclusive: 89.1 µM [inhibitor, single point]
40 | CCCOc1ccc(C(=O)N(Cc2ccc(N(C)C)cc2)CC2CCCO2)cc1 (configuration not stated) | inconclusive: 15.8 µM [inhibitor, full curve]
41 | COc1ccc(S(=O)(=O)N2CCN(Cc3cc(OC)c(OC)c(OC)c3)CC2)cc1 | inconclusive: 20 µM [inhibitor, full curve]
42 | O=C1Nc2ccccc2/C1=N/N=C/c1cccc(O)c1 | inactive
43 | O=C(CCN1CCc2ccccc21)c1ccc2c(c1)OCCO2 | inactive
44 | Cc1ccc(CN(Cc2ccc(C)o2)C(=S)NCC(=O)O)cc1 | inactive
45 | CCCC1CCc2c(sc(N)c2C(N)=O)C1 (configuration not stated) | inconclusive: 50.1 µM [inhibitor, partial curve]
46 | C=CCNCCCOc1ccc(Cl)cc1C(C)(C)C | inconclusive: 56.2 µM [inhibitor, single point]
47 | CN(C)S(=O)(=O)c1cc(NC(=O)COC(=O)/C=C/c2ccco2)ccc1Cl | inconclusive: 31.6 µM [inhibitor, full curve]
48 | CC(CN1CCC(O)CC1)c1ccccc1 (configuration not stated) | inconclusive: 56.2 µM [inhibitor, single point]

Row | Structure (SMILES) | Potency
49 | Cc1cc2nc(/C(C#N)=C\c3ccc(-c4ccccc4C(=O)O)o3)[nH]c2cc1C | inactive
50 | CCOCC(=O)Nc1cc(S(=O)(=O)N2CCOCC2)ccc1N1CCCCC1 | inconclusive: 7.94 µM [inhibitor, full curve]
51 | CC(C)c1ccc(C(=O)Nc2cc(-c3ccccc3F)nn2-c2ccccc2)cc1 | inactive
52 | O=C1C2C3C=CC(CC3)C2C(=O)N1/N=C/c1ccc(O)c(O)c1 (configuration not stated) | inconclusive: 22.4 µM [inhibitor, partial curve, poor fit]
53 | CC(=O)c1ccc(N2CCN(CC(O)COC(c3ccccc3)c3ccccc3C)CC2)cc1 (configuration not stated) | active: 44.7 µM
54 | COc1ccc(N2C(=O)c3ccc(C(=O)OC(C)C)cc3C2=O)cc1 | inconclusive: 8.91 µM [inhibitor, single point]
55 | C/C(=N\Nc1ccc(S(=O)(=O)Nc2ccccc2)cc1[N+](=O)[O-])c1ccc(N2CCOCC2)cc1 | inconclusive: 6.31 µM [inhibitor, full curve, poor fit]
56 | Cc1cc(Cl)ccc1OCCCC(=O)N1CCCCC1 | inactive
57 | COC(=O)c1ccc(/C=C2/SC(=S)N(CCCC(=O)Nc3ccccn3)C2=O)cc1 | inconclusive: 31.6 µM [inhibitor, single point]
58 | CC(/C=C1\SC(=S)N(NC(=O)c2cccc(O)c2)C1=O)=C\c1ccccc1 | inconclusive: 28.2 µM [inhibitor, full curve]
59 | Cc1ccc(/C=C/C(=O)c2ccccc2O)cc1 | inconclusive: 44.7 µM [inhibitor, partial curve]
60 | O=c1c(S(=O)(=O)c2ccccc2)cn(Cc2cccc(F)c2)c2cc(N3CCOCC3)c(F)cc12 | inactive
61 | COC(=O)C(/C=N/OCc1ccc([N+](=O)[O-])cc1)NC(=O)c1cccc(Cl)c1 (configuration not stated) | inconclusive: 89.1 µM [inhibitor, single point]
62 | O=C(c1ccccc1)c1nn(-c2cccc(Cl)c2)ccc1=O | inactive
63 | COc1ccc(C2CC(c3ccccc3)=NN2C(=O)CN2CCN(Cc3ccccc3)CC2)cc1 (configuration not stated) | inactive
64 | Nc1ccccc1SCc1csc(-c2ccc(Cl)cc2)n1 | inactive
65 | Cc1cc(C)c(NC(=S)NC(=O)c2ccc(-c3ccccc3)cc2)c(C)c1 | inconclusive: 28.2 µM [inhibitor, partial curve, poor fit]
66 | CCN1CCN(Cc2ccc(NC(=O)c3ccc(C)c(NC(=O)C4=NN(c5ccccc5)C(=O)C4)c3)cc2C(F)(F)F)CC1 | inconclusive: 79.4 µM [inhibitor, single point]
67 | O=C(c1cccs1)N1N=C(c2ccccc2)CC1c1ccc(O)cc1 (configuration not stated) | inconclusive: 39.8 µM [inhibitor, single point]
68 | O=C(c1ccco1)N1CCN=C1SCc1ccc(F)cc1 | inactive
69 | c1cc(-c2sc(-c3ccncc3)c(-c3ccncc3)c2-c2ccncc2)ccn1 | inactive
70 | O=C(Cc1ccccc1)N[C@@H](Cc1ccccc1)C(=O)O | inactive
71 | COCCn1nnnc1C(c1cc2cc(OC)c(OC)cc2[nH]c1=O)N1CCN(c2ccc(O)cc2)CC1 (configuration not stated) | inconclusive: 79.4 µM [inhibitor, single point]
72 | Cc1ccc(C2CC(=O)C=C(NCC(C)C)C2)cc1 (configuration not stated) | inconclusive: 39.8 µM [inhibitor, single point]
